Biological target: the molecule itself
Assay: crystal structure; co-purified CapAB, 5.1 mg/mL; crystal from 0.02 M Na/K phosphate, 0.1 M Bis-Tris propane pH 7.5, 20% PEG3350, 294 K; 4.0 Å, molecular replacement; two CapAB dimers in the asymmetric unit

B1: Caprolactamase subunit β (CapB) from Pseudomonas jessenii GO3 (natural protein, UniProt A0A2W0FH34 1-581, looked up)
chain: MNTVDPITLAVVRGALETAQREMTLTLEKTSRSSVFNLAHDYSNALFDHLPEMILQGQDIPIHLGSLIPAMKCVAGFFGDEIAEGDVIYHNDPAYMGSHILDCCMYKPVFYKGELVFWTVCKGHLTDIGGPVPAGYNPDAKEIYAEGLRIPPVKLWAQGQRREDVINLLLTNMRARAYQEGDLNAQYGACSVGERHLIELLDRYGVDQVRACITELKDMADRHMRALLRDVPDGFYSGTAILEDSGHGLGELSITAQVEIRGDEAHVLIESPPQVPYFINSYAGNSISGVYLGLMMFAQVPPPYNEGLYRCVSVDLGPSGTLCNAQEPAPHVNCTTTPMETLADAVRLALEQAAPERVTASWGHASGINIAGHDPRNNNDEYVTMVLASVISGAGANKAMDGWPACGPLCCFGALMSGDIELLEYSYPVLIHRYSLMTDSGGAGEFRGGSGTRLELEPLKHAMTVVGFGEGRQLPTAGAAGAKNVLLEPKLGRLIHRHVDGEEDHYIQNTLLTAQPGERVINVNPGGGGYGDPLRRPLATVLADVRNGLVSIDGARLEYGVVIDGNGQLDEAATHAHRAAH
notes: untagged; residues 1-580 are in the crystal model; Untagged; Two copies of CapB form the dimeric core of the (αβ)2 tetramer; also called PjCapB; β subunit; source: E. coli C41(DE3), co-expressed with His-tagged CapA from pET20b(+)-CapBAHis; in cell-free extract, then purified with CapA (Ni-NTA; Superdex 200 gel filtration for crystallography)
- stoichiometry N: 2

Reference: paper PMC8453981, “Catalytic and structural properties of ATP‐dependent caprolactamase from Pseudomonas jessenii” (Proteins, 2021)
